# Source: the supplement of paper PMC8728848
# Some of the results follow.
# B1: GS13686A-pdi-553-26-553 (Parabacteroides distasonis) (protein)
# chain: NENPDKPTDDVNYNMNEPRLASTLRGGLIIEGNVEQRLKPLQIDFYSQMTVDGGGWGTKNYIQDDEWNNLVWEEYLKQIASINIVIRSLTEKDKDAYANTIAFARIWRVYVHTLAADKFGPMPFPAYEIVEANPPYKSLKDIYDEYFRELDAAINGFNDSAQPIFSDAGIDLIYKNDVSKWKRFANSLRLRLAVRLTEVDQEKCIAEANAAISSPAGLISDKADNAYMPPKADGSWGQDYNYTMFQITWSGPICMSKSVEKLVTNIGGVAWPQGVVNQTSGVAVSSVHPEKVDPRAPKIFQPGIENGDWKGLVYGPKAEEANTGIYQSKQCAELGFIIKDGYPYKSRPYDLFLSEEVHFLKAELYARGFIAGDAKSEYEAGVRASFATWGVTSEVDDYLTSTEKNEAGTSARYDDQQGAGNTALEKIITQKYIAGIPDLAQEGWNDKRRLNLPRLDVAVYRDQAVYNNNDKDILKSANFIKRMRYPTKESLINATEYEKGKSMLGGKGDIVSTPLWWDKNSNYCTSSK
# Columns and labels:
# Test in all cases: glycan array binding signal (z-score within array); higher = stronger binding
# Conditions in all cases: glycan notation: IUPAC condensed, linker removed
# Fuc(a1-2)Gal = molecular target: Fuc(a1-2)Gal
# Procedure, shortened: (§1)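 From the Consortium for Functional Glycomics database, 3228 arrays were curated, keeping only those whose protein sequence was available. Binding is given as a within-array Z-score averaged across arrays sharing a protein sequence and across linkers. Negative Z-scores can be read as non-binding.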
# Fuc(a1-2)Gal(b1-3)GalNAc = molecular target: Fuc(a1-2)Gal(b1-3)GalNAc
# Procedure, shortened: as §1
# [1] = molecular target: Fuc(a1-2)Gal(b1-3)GalNAc(a1-3)[Fuc(a1-2)]Gal(b1-4)Glc
# Procedure, shortened: as §1
# [2] = molecular target: Fuc(a1-2)Gal(b1-3)GalNAc(a1-3)[Fuc(a1-2)]Gal(b1-4)GlcNAc
# Procedure, shortened: as §1
# [3] = molecular target: Fuc(a1-2)Gal(b1-3)GalNAc(b1-3)Gal
# Procedure, shortened: as §1
# [4] = molecular target: Fuc(a1-2)Gal(b1-3)GalNAc(b1-3)Gal(a1-4)Gal(b1-4)Glc
# Procedure, shortened: as §1
# [5] = molecular target: Fuc(a1-2)Gal(b1-3)GalNAc(b1-4)[Neu5Ac(a2-3)]Gal(b1-4)Glc
# Procedure, shortened: as §1
# Fuc(a1-2)Gal(b1-3)GlcNAc = molecular target: Fuc(a1-2)Gal(b1-3)GlcNAc
# Procedure, shortened: as §1
# [6] = molecular target: Fuc(a1-2)Gal(b1-3)GlcNAc(b1-2)Man(a1-3)[Fuc(a1-2)Gal(b1-3)GlcNAc(b1-2)Man(a1-6)]Man(b1-4)GlcNAc(b1-4)GlcNAc
# Procedure, shortened: as §1
# [7] = molecular target: Fuc(a1-2)Gal(b1-3)GlcNAc(b1-2)Man(a1-3)[Fuc(a1-2)Gal(b1-3)GlcNAc(b1-2)Man(a1-6)]Man(b1-4)GlcNAc(b1-4)[Fuc(a1-6)]GlcNAc
# Procedure, shortened: as §1
# [8] = molecular target: Fuc(a1-2)Gal(b1-3)GlcNAc(b1-3)Gal(b1-4)Glc
# Procedure, shortened: as §1
# [9] = molecular target: Fuc(a1-2)Gal(b1-3)GlcNAc(b1-3)GalNAc
# Procedure, shortened: as §1
# [10] = molecular target: Fuc(a1-2)Gal(b1-3)GlcNAc(b1-3)[Fuc(a1-2)Gal(b1-3)GlcNAc(b1-6)]GalNAc
# Procedure, shortened: as §1
# [11] = molecular target: Fuc(a1-2)Gal(b1-3)GlcNAc(b1-3)[Gal(b1-4)GlcNAc(b1-6)]Gal(b1-4)Glc
# Procedure, shortened: as §1
# [12] = molecular target: Fuc(a1-2)Gal(b1-3)GlcNAc(b1-3)[Neu5Ac(a2-6)Gal(b1-4)GlcNAc(b1-6)]Gal(b1-4)Glc
# Procedure, shortened: as §1
# [13] = molecular target: Fuc(a1-2)Gal(b1-3)GlcNAc6S
# Procedure, shortened: as §1
# [14] = molecular target: Fuc(a1-2)Gal(b1-3)[Fuc(a1-4)]GlcNAc
# Procedure, shortened: as §1
# [15] = molecular target: Fuc(a1-2)Gal(b1-3)[Fuc(a1-4)]GlcNAc(b1-2)Man(a1-3)[Fuc(a1-2)Gal(b1-3)[Fuc(a1-4)]GlcNAc(b1-2)Man(a1-3)]Man(b1-4)GlcNAc(b1-4)GlcNAc
# Procedure, shortened: as §1
# [16] = molecular target: Fuc(a1-2)Gal(b1-3)[Fuc(a1-4)]GlcNAc(b1-2)Man(a1-3)[Fuc(a1-2)Gal(b1-3)[Fuc(a1-4)]GlcNAc(b1-2)Man(a1-6)]Man(b1-4)GlcNAc(b1-4)[Fuc(a1-6)]GlcNAc(b1-4)[Fuc(a1-6)]GlcNAc
# Procedure, shortened: as §1
# [17] = molecular target: Fuc(a1-2)Gal(b1-3)[Fuc(a1-4)]GlcNAc(b1-3)[Fuc(a1-3)[Gal(b1-4)]GlcNAc(b1-6)]Gal(b1-4)Glc
# Procedure, shortened: as §1
# [18] = molecular target: Fuc(a1-2)Gal(b1-3)[Fuc(a1-4)]GlcNAc(b1-3)[Gal(b1-4)GlcNAc(b1-6)]Gal(b1-4)Glc
# Procedure, shortened: as §1
# Fuc(a1-2)Gal(b1-4)Glc = molecular target: Fuc(a1-2)Gal(b1-4)Glc
# Procedure, shortened: as §1
# Fuc(a1-2)Gal(b1-4)Glc6S = molecular target: Fuc(a1-2)Gal(b1-4)Glc6S
# Procedure, shortened: as §1
# Fuc(a1-2)Gal(b1-4)GlcNAc = molecular target: Fuc(a1-2)Gal(b1-4)GlcNAc
# Procedure, shortened: as §1
# [19] = molecular target: Fuc(a1-2)Gal(b1-4)GlcNAc(b1-2)Man
# Procedure, shortened: as §1
# [20] = molecular target: Fuc(a1-2)Gal(b1-4)GlcNAc(b1-2)Man(a1-3)[Fuc(a1-2)Gal(b1-4)GlcNAc(b1-2)Man(a1-6)]Man(b1-4)GlcNAc(b1-4)GlcNAc
# Procedure, shortened: as §1
# [21] = molecular target: Fuc(a1-2)Gal(b1-4)GlcNAc(b1-2)Man(a1-3)[Fuc(a1-2)Gal(b1-4)GlcNAc(b1-2)Man(a1-6)]Man(b1-4)GlcNAc(b1-4)[Fuc(a1-6)]GlcNAc
# Procedure, shortened: as §1
# [22] = molecular target: Fuc(a1-2)Gal(b1-4)GlcNAc(b1-2)[Fuc(a1-2)Gal(b1-4)GlcNAc(b1-4)]Man(a1-3)[Fuc(a1-2)Gal(b1-4)GlcNAc(b1-2)Man(a1-6)]Man(b1-4)GlcNAc(b1-4)GlcNAc
# Procedure, shortened: as §1
# [23] = molecular target: Fuc(a1-2)Gal(b1-4)GlcNAc(b1-3)Gal(b1-4)GlcNAc
# Procedure, shortened: as §1
# [24] = molecular target: Fuc(a1-2)Gal(b1-4)GlcNAc(b1-3)Gal(b1-4)GlcNAc(b1-2)Man(a1-3)[Fuc(a1-2)Gal(b1-4)GlcNAc(b1-3)Gal(b1-4)GlcNAc(b1-2)Man(a1-6)]Man(b1-4)GlcNAc(b1-4)GlcNAc
# Procedure, shortened: as §1
binder,measurement,setting,value
B1,glycan array binding signal (z-score),Fuc(a1-2)Gal,-0.108
same,glycan array binding signal (z-score),Fuc(a1-2)Gal(b1-3)GalNAc,-0.298
same,glycan array binding signal (z-score),[1],-0.182
same,glycan array binding signal (z-score),[2],-0.223
same,glycan array binding signal (z-score),[3],0.382
same,glycan array binding signal (z-score),[4],-0.362
same,glycan array binding signal (z-score),[5],0.028
same,glycan array binding signal (z-score),Fuc(a1-2)Gal(b1-3)GlcNAc,-0.107
same,glycan array binding signal (z-score),[6],0.144
same,glycan array binding signal (z-score),[7],0.027
same,glycan array binding signal (z-score),[8],-0.191
same,glycan array binding signal (z-score),[9],-0.08
same,glycan array binding signal (z-score),[10],-0.15
same,glycan array binding signal (z-score),[11],-0.18
same,glycan array binding signal (z-score),[12],-0.05
same,glycan array binding signal (z-score),[13],0.236
same,glycan array binding signal (z-score),[14],-0.275
same,glycan array binding signal (z-score),[15],0.077
same,glycan array binding signal (z-score),[16],0.042
same,glycan array binding signal (z-score),[17],-0.349
same,glycan array binding signal (z-score),[18],-0.191
same,glycan array binding signal (z-score),Fuc(a1-2)Gal(b1-4)Glc,-0.076
same,glycan array binding signal (z-score),Fuc(a1-2)Gal(b1-4)Glc6S,0.03
same,glycan array binding signal (z-score),Fuc(a1-2)Gal(b1-4)GlcNAc,-0.195
same,glycan array binding signal (z-score),[19],-0.195
same,glycan array binding signal (z-score),[20],-0.183
same,glycan array binding signal (z-score),[21],0.402
same,glycan array binding signal (z-score),[22],-0.105
same,glycan array binding signal (z-score),[23],-0.015
same,glycan array binding signal (z-score),[24],0.006
